According to patent publication US8883841B2, “Oncogenic ras-specific cytotoxic compound and methods of use thereof” (The Board of Regents of the University of Texas System, priority 2005, dated 2014):

Key:
HCT-116 = test: NCI in-vitro testing, HCT-116 (Colon Cancer)
HOP-92 = test: NCI in-vitro testing, HOP-92 (Non-Small Cell Lung Cancer)
NCI-H460 = test: NCI in-vitro testing, NCI-H460 (Non-Small Cell Lung Cancer); details: NCI-H450
CCRF-CEM = test: NCI in-vitro testing, CCRF-CEM (Leukemia)
K-562 = test: NCI in-vitro testing, K-562 (Leukemia)
MDA-MB-435 = test: NCI in-vitro testing, MDA-MB-435 (Breast Cancer)
SR = test: NCI in-vitro testing, SR (Leukemia); assay type: cell-based
786-0 = test: NCI in-vitro testing, 786-0 (Renal Cancer)
BT-549 = test: NCI in-vitro testing, BT-549 (Breast Cancer)
T-47D = test: NCI in-vitro testing, T-47D (Breast Cancer)
UACC-62 = test: NCI in-vitro testing, UACC-62 (Melanoma)
SW-620 = test: NCI in-vitro testing, SW-620 (Colon Cancer)
NCI-H522 = test: NCI in-vitro testing, NCI-H522 (Non-Small Cell Lung Cancer); details: NCI-H622
HL-60(TB) = test: NCI in-vitro testing, HL-60(TB) (Leukemia)
CAKI-1 = test: NCI in-vitro testing, CAKI-1 (Renal Cancer); details: CAK1-1
SK-OV-3 = test: NCI in-vitro testing, SK-OV-3 (Ovarian Cancer)
ACHN = test: NCI in-vitro testing, ACHN (Renal Cancer)
SK-MEL-2 = test: NCI in-vitro testing, SK-MEL-2 (Melanoma)
SK-MEL-5 = test: NCI in-vitro testing, SK-MEL-5 (Melanoma)
SN12C = test: NCI in-vitro testing, SN12C (Renal Cancer)
NCI/ADR-RES = test: NCI in-vitro testing, NCI/ADR-RES (Breast Cancer)
[1] = Log10 Concentration −4.0 (Molar)
[2] = Log10 Concentration −5.0 (Molar)
[3] = Log10 Concentration −6.0 (Molar)
[4] = Log10 Concentration −7.0 (Molar)
[5] = Log10 Concentration −8.0 (Molar)

Compound: OCc1cn(Cc2ccc(Cl)cc2)c2ccccc12 [Oncrasin K060, 1H-Indole-3-methanol, 1-[(4-chlorophenyl)methyl]-]
- Mean Optical Densities (HCT-116; [1]): 0.095
- Mean Optical Densities (HCT-116; [2]): 0.296
- Mean Optical Densities (HCT-116; [3]): 0.448
- Mean Optical Densities (HCT-116; [4]): 0.625
- Mean Optical Densities (HCT-116; [5]): 1.526
- Mean Optical Densities (HOP-92; [1]): 0.175
- Mean Optical Densities (HOP-92; [2]): 0.573
- Mean Optical Densities (HOP-92; [3]): 0.785
- Mean Optical Densities (HOP-92; [4]): 0.763
- Mean Optical Densities (HOP-92; [5]): 0.816
- Mean Optical Densities (NCI-H460; [1]): 0.201
- Mean Optical Densities (NCI-H460; [2]): 0.483
- Mean Optical Densities (NCI-H460; [3]): 0.638
- Mean Optical Densities (NCI-H460; [4]): 1.219
- Mean Optical Densities (NCI-H460; [5]): 1.847
- Mean Optical Densities (CCRF-CEM; [1]): 0.116
- Mean Optical Densities (CCRF-CEM; [3]): 1.841
- Mean Optical Densities (CCRF-CEM; [4]): 1.900
- Mean Optical Densities (CCRF-CEM; [5]): 1.946
- Mean Optical Densities (K-562; [1]): 0.027
- Mean Optical Densities (K-562; [2]): 0.135
- Mean Optical Densities (K-562; [3]): 0.468
- Mean Optical Densities (K-562; [4]): 0.840
- Mean Optical Densities (K-562; [5]): 0.717
- Mean Optical Densities (MDA-MB-435; [1]): 0.297
- Mean Optical Densities (MDA-MB-435; [2]): 1.535
- Mean Optical Densities (MDA-MB-435; [3]): 1.739
- Mean Optical Densities (MDA-MB-435; [4]): 1.793
- Mean Optical Densities (MDA-MB-435; [5]): 1.811
- Mean Optical Densities (SR; [1]): 0.167
- Mean Optical Densities (SR; [2]): 0.474
- Mean Optical Densities (SR; [3]): 0.166
- Mean Optical Densities (SR; [4]): 0.429
- Mean Optical Densities (SR; [5]): 0.818
- Mean Optical Densities (786-0; [1]): 0.232
- Mean Optical Densities (786-0; [2]): 0.870
- Mean Optical Densities (786-0; [3]): 1.586
- Mean Optical Densities (786-0; [4]): 1.758
- Mean Optical Densities (786-0; [5]): 1.923
- Mean Optical Densities (BT-549; [1]): 0.066
- Mean Optical Densities (BT-549; [2]): 0.524
- Mean Optical Densities (BT-549; [3]): 0.782
- Mean Optical Densities (BT-549; [4]): 0.856
- Mean Optical Densities (BT-549; [5]): 0.831
- Mean Optical Densities (T-47D; [1]): 0.465
- Mean Optical Densities (T-47D; [2]): 0.453
- Mean Optical Densities (T-47D; [4]): 0.684
- Mean Optical Densities (T-47D; [5]): 1.079
- Mean Optical Densities (UACC-62; [1]): 0.041
- Mean Optical Densities (UACC-62; [2]): 0.383
- Mean Optical Densities (UACC-62; [3]): 0.715
- Mean Optical Densities (UACC-62; [4]): 1.238
- Mean Optical Densities (UACC-62; [5]): 1.885
- Mean Optical Densities (SW-620; [1]): 0.116
- Mean Optical Densities (SW-620; [2]): 0.423
- Mean Optical Densities (SW-620; [3]): 0.732
- Mean Optical Densities (SW-620; [4]): 1.298
- Mean Optical Densities (SW-620; [5]): 1.444
- Mean Optical Densities (NCI-H522; [1]): 0.187
- Mean Optical Densities (NCI-H522; [2]): 0.773
- Mean Optical Densities (NCI-H522; [3]): 1.344
- Mean Optical Densities (NCI-H522; [4]): 1.392
- Mean Optical Densities (NCI-H522; [5]): 1.465
- Mean Optical Densities (HL-60(TB); [1]): 0.072
- Mean Optical Densities (HL-60(TB); [2]): 0.402
- Mean Optical Densities (HL-60(TB); [3]): 0.918
- Mean Optical Densities (HL-60(TB); [4]): 1.057
- Mean Optical Densities (HL-60(TB); [5]): 1.135
- Mean Optical Densities (CAKI-1; [1]): 0.433
- Mean Optical Densities (CAKI-1; [2]): 0.226
- Mean Optical Densities (CAKI-1; [3]): 0.337
- Mean Optical Densities (CAKI-1; [4]): 0.416
- Mean Optical Densities (CAKI-1; [5]): 0.431
- Mean Optical Densities (SK-OV-3; [1]): 0.456
- Mean Optical Densities (SK-OV-3; [2]): 0.645
- Mean Optical Densities (SK-OV-3; [3]): 0.904
- Mean Optical Densities (SK-OV-3; [4]): 1.035
- Mean Optical Densities (SK-OV-3; [5]): 1.084
- Mean Optical Densities (ACHN; [1]): 0.345
- Mean Optical Densities (ACHN; [2]): 0.608
- Mean Optical Densities (ACHN; [3]): 1.323
- Mean Optical Densities (ACHN; [4]): 1.516
- Mean Optical Densities (ACHN; [5]): 1.589
- Mean Optical Densities (SK-MEL-2; [1]): 0.287
- Mean Optical Densities (SK-MEL-2; [2]): 0.640
- Mean Optical Densities (SK-MEL-2; [3]): 1.172
- Mean Optical Densities (SK-MEL-2; [4]): 1.285
- Mean Optical Densities (SK-MEL-2; [5]): 1.341
- Mean Optical Densities (SK-MEL-5; [1]): 0.010
- Mean Optical Densities (SK-MEL-5; [2]): 0.855
- Mean Optical Densities (SK-MEL-5; [3]): 1.339
- Mean Optical Densities (SK-MEL-5; [4]): 1.602
- Mean Optical Densities (SK-MEL-5; [5]): 1.633
- Mean Optical Densities (SN12C; [1]): 0.308
- Mean Optical Densities (SN12C; [2]): 1.234
- Mean Optical Densities (SN12C; [3]): 1.874
- Mean Optical Densities (SN12C; [4]): 2.047
- Mean Optical Densities (SN12C; [5]): 2.103
- Mean Optical Densities (NCI/ADR-RES; [1]): 0.192
- Mean Optical Densities (NCI/ADR-RES; [2]): 0.744
- Mean Optical Densities (NCI/ADR-RES; [3]): 1.045
- Mean Optical Densities (NCI/ADR-RES; [4]): 1.117
- Mean Optical Densities (NCI/ADR-RES; [5]): 1.191
